The other results are listed elsewhere or left out. No stated cut-off is given here; in the data, active = 3.2 or more and inactive = the rest. Most of these values are background signal.
Columns and labels:
Experiment in all cases: enrichment score (SH2-bound / input frequency) (ratio); bacterial display of known human phosphotyrosine sites (pTyr-Var adds point mutants) read by sequencing; higher = stronger binding; tyrosines were phosphorylated by kinases first
Conditions in all cases: peptide library: Human pTyr
SHP2 C-SH2 domain E139D = biological target: SHP2 C-SH2 domain E139D
[1] = biological target: SHP2 C-SH2 domain wild-type
SHP2 N-SH2 domain L43F = biological target: SHP2 N-SH2 domain L43F
SHP2 N-SH2 domain T42A = biological target: SHP2 N-SH2 domain T42A
SHP2 N-SH2 domain T52S = biological target: SHP2 N-SH2 domain T52S
[2] = biological target: SHP2 N-SH2 domain wild-type

Measured: enrichment score
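Further: displayed peptides selected on beads carrying the immobilized SH2 domain, with library peptides lacking any tyrosine serving as negative controls.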

SSEDLSAYASISFQK [IRS1_HUMAN_1229]
inactive: SHP2 C-SH2 domain E139D 1.71 | [1] 3.16 | SHP2 N-SH2 domain L43F 1.45 | SHP2 N-SH2 domain T42A 1.66 | SHP2 N-SH2 domain T52S 1.52 | [2] 1.29

VSSAASVYAGAGGSG [K1C18_HUMAN_36]
inactive: SHP2 C-SH2 domain E139D 0.599 | [1] 0.534 | SHP2 N-SH2 domain L43F 0.546 | SHP2 N-SH2 domain T42A 0.548 | SHP2 N-SH2 domain T52S 0.578 | [2] 0.494

NLGADDGYMPMTPGA [IRS2_HUMAN_653]
inactive: SHP2 C-SH2 domain E139D 0.546 | [1] 0.432 | SHP2 N-SH2 domain L43F 0.506 | SHP2 N-SH2 domain T42A 0.477 | SHP2 N-SH2 domain T52S 0.476 | [2] 0.422

AAGTQQPYTDGVRME [JUP_HUMAN_550]
inactive: SHP2 C-SH2 domain E139D 0.604 | [1] 0.548 | SHP2 N-SH2 domain L43F 0.68 | SHP2 N-SH2 domain T42A 0.694 | SHP2 N-SH2 domain T52S 0.5 | [2] 0.677

VSLIDGAYRLTADAH [JAK2_HUMAN_373_YA]
inactive: SHP2 C-SH2 domain E139D 0.462 | [1] 0.412 | SHP2 N-SH2 domain L43F 0.496 | SHP2 N-SH2 domain T42A 0.463 | SHP2 N-SH2 domain T52S 0.488 | [2] 0.448

NSLISSDYELLSDPT [JAK3_HUMAN_785]
inactive: SHP2 C-SH2 domain E139D 0.666 | [1] 0.49 | SHP2 N-SH2 domain L43F 0.73 | SHP2 N-SH2 domain T42A 0.486 | SHP2 N-SH2 domain T52S 0.436 | [2] 0.598

ALKIRRSYALVSLSF [INSR_HUMAN_401_YA]
inactive: SHP2 C-SH2 domain E139D 1.52 | [1] 1.37 | SHP2 N-SH2 domain L43F 1.25 | SHP2 N-SH2 domain T42A 1.27 | SHP2 N-SH2 domain T52S 1.58 | [2] 1.45

EYQNKLIYLVPEKQL [ITSN2_HUMAN_553]
active: SHP2 N-SH2 domain L43F 9.35 | SHP2 N-SH2 domain T42A 3.62 | SHP2 N-SH2 domain T52S 5.49
inactive: SHP2 C-SH2 domain E139D 0.734 | [1] 0.932 | [2] 1.44

FGMTRDVYETDAARK [INSRR_HUMAN_1141_YA]
inactive: SHP2 C-SH2 domain E139D 0.836 | [1] 0.799 | SHP2 N-SH2 domain L43F 0.912 | SHP2 N-SH2 domain T42A 0.714 | SHP2 N-SH2 domain T52S 0.828 | [2] 0.702

GFQNGLNYIAIDVRE [IRS2_HUMAN_1253]
inactive: SHP2 C-SH2 domain E139D 0.791 | [1] 0.839 | SHP2 N-SH2 domain T42A 1.76 | SHP2 N-SH2 domain T52S 2.23 | [2] 0.981
active: SHP2 N-SH2 domain L43F 3.54

YASSNPEYLSASDVF [INSR_HUMAN_999]
inactive: SHP2 C-SH2 domain E139D 0.484 | [1] 0.443 | SHP2 N-SH2 domain L43F 0.536 | SHP2 N-SH2 domain T42A 0.446 | SHP2 N-SH2 domain T52S 0.5 | [2] 0.661

VPSSRGDYMTMQMSC [IRS1_HUMAN_989]
inactive: SHP2 C-SH2 domain E139D 0.982 | [1] 0.869 | SHP2 N-SH2 domain L43F 1.07 | SHP2 N-SH2 domain T42A 0.91 | SHP2 N-SH2 domain T52S 1.01 | [2] 1.04

IETDKEAYTVKDDRD [JAK1_HUMAN_1035_YA]
inactive: SHP2 C-SH2 domain E139D 1.21 | [1] 1.04 | SHP2 N-SH2 domain L43F 1.1 | SHP2 N-SH2 domain T42A 1.15 | SHP2 N-SH2 domain T52S 1.09 | [2] 1.22

ARLSVEIYDRREASR [ITGB7_HUMAN_753_YA]
inactive: SHP2 C-SH2 domain E139D 1.68 | [1] 1.36 | SHP2 N-SH2 domain L43F 1.26 | SHP2 N-SH2 domain T42A 1.46 | SHP2 N-SH2 domain T52S 1.64 | [2] 1.41

TLHTDDGYMPMSPGV [IRS1_HUMAN_612]
inactive: SHP2 C-SH2 domain E139D 0.628 | [1] 0.453 | SHP2 N-SH2 domain L43F 0.483 | SHP2 N-SH2 domain T42A 0.445 | SHP2 N-SH2 domain T52S 0.763 | [2] 0.515

EAQNKLIYLVPEKQL [ITSN2_HUMAN_553_YA]
active: SHP2 N-SH2 domain L43F 13.4 | SHP2 N-SH2 domain T42A 4.45 | SHP2 N-SH2 domain T52S 8.14
inactive: SHP2 C-SH2 domain E139D 0.866 | [1] 0.827 | [2] 1.64

ETVVIALYDAQTNDP [ITK_HUMAN_180_YA]
inactive: SHP2 C-SH2 domain E139D 0.915 | [1] 0.821 | SHP2 N-SH2 domain L43F 0.795 | SHP2 N-SH2 domain T42A 0.831 | SHP2 N-SH2 domain T52S 0.908 | [2] 0.8

VLPQDKEYAKVKEPG [JAK2_HUMAN_1007_YA]
inactive: SHP2 C-SH2 domain E139D 1.05 | [1] 1.28 | SHP2 N-SH2 domain L43F 0.854 | SHP2 N-SH2 domain T42A 0.821 | SHP2 N-SH2 domain T52S 1.2 | [2] 0.988

VFLRCINYVFFPSLK [INAR1_HUMAN_466]
inactive: SHP2 C-SH2 domain E139D 2.74 | [1] 2.6 | SHP2 N-SH2 domain L43F 2.23 | SHP2 N-SH2 domain T42A 2.97 | SHP2 N-SH2 domain T52S 2.91 | [2] 3.1

KVKDPTEYTGPESAV [ITPR2_HUMAN_2607_YA]
inactive: SHP2 C-SH2 domain E139D 0.963 | [1] 1.04 | SHP2 N-SH2 domain L43F 0.888 | SHP2 N-SH2 domain T42A 0.861 | SHP2 N-SH2 domain T52S 1.12 | [2] 1.07

DVYETDYYRKGGKGL [INSRR_HUMAN_1146]
inactive: SHP2 C-SH2 domain E139D 0.81 | [1] 0.634 | SHP2 N-SH2 domain L43F 0.691 | SHP2 N-SH2 domain T42A 0.815 | SHP2 N-SH2 domain T52S 0.74 | [2] 0.832

KQDSNPLYKSAITTT [ITB7_HUMAN_778]
inactive: SHP2 C-SH2 domain E139D 0.773 | [1] 0.545 | SHP2 N-SH2 domain L43F 0.548 | SHP2 N-SH2 domain T42A 0.547 | SHP2 N-SH2 domain T52S 0.771 | [2] 0.7

SLGFKRSYEEHIPAT [INSR_HUMAN_1355_YA]
inactive: SHP2 C-SH2 domain E139D 0.826 | [1] 0.747 | SHP2 N-SH2 domain L43F 0.822 | SHP2 N-SH2 domain T42A 0.663 | SHP2 N-SH2 domain T52S 0.89 | [2] 0.862

TSTIMTDYNPNYCFA [ALK_HUMAN_1092]
inactive: SHP2 C-SH2 domain E139D 1.03 | [1] 0.977 | SHP2 N-SH2 domain L43F 1.09 | SHP2 N-SH2 domain T42A 1.17 | SHP2 N-SH2 domain T52S 1.05 | [2] 1.06

VKSGFEGYVELPPIE [IL3RB_HUMAN_766]
inactive: SHP2 C-SH2 domain E139D 0.703 | [1] 0.946 | SHP2 N-SH2 domain L43F 0.817 | SHP2 N-SH2 domain T42A 0.738 | SHP2 N-SH2 domain T52S 0.89 | [2] 0.835

VLARIRFYFPRWACS [JAK2_HUMAN_119_YA]
inactive: SHP2 C-SH2 domain E139D 1 | [1] 0.917 | SHP2 N-SH2 domain L43F 1.08 | SHP2 N-SH2 domain T42A 0.909 | SHP2 N-SH2 domain T52S 0.908 | [2] 1.23

DIAETDAYRKGGKGL [INSR_HUMAN_1190_YA]
inactive: SHP2 C-SH2 domain E139D 1.03 | [1] 0.681 | SHP2 N-SH2 domain L43F 0.784 | SHP2 N-SH2 domain T42A 0.823 | SHP2 N-SH2 domain T52S 1.04 | [2] 0.827

TTEAPGEYFFSDGIR [IMDH2_HUMAN_400]
inactive: SHP2 C-SH2 domain E139D 0.592 | [1] 0.263 | SHP2 N-SH2 domain L43F 0.384 | SHP2 N-SH2 domain T42A 0.578 | SHP2 N-SH2 domain T52S 0.384 | [2] 0.429

DGGSDQNYDIVTIGA [INP4A_HUMAN_355]
inactive: SHP2 C-SH2 domain E139D 0.917 | [1] 0.991 | SHP2 N-SH2 domain L43F 0.779 | SHP2 N-SH2 domain T42A 0.723 | SHP2 N-SH2 domain T52S 0.946 | [2] 0.902

FGMTRDIYETDAARK [INSR_HUMAN_1185_YA]
inactive: SHP2 C-SH2 domain E139D 0.668 | [1] 0.775 | SHP2 N-SH2 domain L43F 0.769 | SHP2 N-SH2 domain T42A 0.665 | SHP2 N-SH2 domain T52S 0.731 | [2] 0.74

VSLIDGYYRLTADAH [JAK2_HUMAN_373]
active: SHP2 C-SH2 domain E139D 7.95 | [1] 15.9
inactive: SHP2 N-SH2 domain L43F 0.68 | SHP2 N-SH2 domain T42A 0.858 | SHP2 N-SH2 domain T52S 0.759 | [2] 0.744

MELQSPEYKLSKLRT [ALK_HUMAN_1078]
inactive: SHP2 C-SH2 domain E139D 0.676 | [1] 0.602 | SHP2 N-SH2 domain L43F 0.834 | SHP2 N-SH2 domain T42A 0.861 | SHP2 N-SH2 domain T52S 0.748 | [2] 0.776

VLPQDKEYYKVKEPG [JAK2_HUMAN_1007]
inactive: SHP2 C-SH2 domain E139D 1.61 | [1] 1.26 | SHP2 N-SH2 domain L43F 1.28 | SHP2 N-SH2 domain T42A 1.4 | SHP2 N-SH2 domain T52S 1.46 | [2] 1.45

VYTNLSSYSPASASS [JUNB_HUMAN_188]
inactive: SHP2 C-SH2 domain E139D 0.619 | [1] 0.781 | SHP2 N-SH2 domain L43F 0.464 | SHP2 N-SH2 domain T42A 0.566 | SHP2 N-SH2 domain T52S 0.536 | [2] 0.561

AFEIIDQYFSGDDID [IMA4_HUMAN_484]
inactive: SHP2 C-SH2 domain E139D 1.49 | [1] 1.37 | SHP2 N-SH2 domain L43F 0.916 | SHP2 N-SH2 domain T42A 1.06 | SHP2 N-SH2 domain T52S 1.16 | [2] 1.26

DTGENPIYKSAVTTV [ITB1_HUMAN_783]
inactive: SHP2 C-SH2 domain E139D 0.6 | [1] 0.581 | SHP2 N-SH2 domain L43F 0.532 | SHP2 N-SH2 domain T42A 0.577 | SHP2 N-SH2 domain T52S 0.612 | [2] 0.676

From the supplement of paper PMC10369915
